Results reported in the supplement of paper PMC11417369.
The other results are listed elsewhere or left out.

What follows are sequences tested on PfSIP2 AP2 domain 1 (GST-tagged) (assay: gcPBM binding intensity (ln(normalized median fluorescence intensity)); higher = stronger DNA binding).
Summary of the method: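 Using an Agilent 4 × 180k array, primer-extended double-stranded 36-bp intergenic genomic probes and negative controls were exposed for 1 h to GST-fused P. falciparum DNA-binding domains expressed in E. coli. Binding was carried out in 1× PBS with 1% milk, 0.2 mg/ml BSA, 0.5% salmon testes DNA and 0.03% Triton X-100, and protein was detected with Alexa488 anti-GST antibody and a 488 nm scan. Binding intensity is the highest Masliner-normalised natural-log median intensity across replicate spots of either probe orientation.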

Sequence	gcPBM binding intensity (ln)
TATCTGTAAATGGACACACACATATATATATATATA [CACACA_site5926]	9.64
TCTTTATTATTCGCCACACACATATATATATATATA [CACACA_site3077]	9.28
TTTTAAAAAAAATAAAAAATAAACAATAATAAATAA [CACACA_negctrl_site721]	6.9
TATATATATAAAAATACACACATGAATGAATATATA [CACACA_site419]	7.94
CTTTTTTTTTTTTTTTGTCCGTATGAGGGACCTATA [XGTACX_site8839]	6.8
TCCATTGTCACCTTTTGTACTTAAATTTTTTCCTCC [XGTACX_site1573]	7.02
ATATCATCTTCTCTATCATTTTTTTTTTTTTTTTTT [CACACA_negctrl_site1220]	7.69
TGAGATAAATGTGGTAGTACATTTTTTTTATATATA [XGTACX_site1918]	7.11
CAAAAATTACCCTTGTGTACACATATATTATATGTA [XGTACX_site1124]	7.01
ATAAAAAAATCAGACACACACACGTAAACACATACA [CACACA_site5529]	7.12
TTAATTATGTTTTGGTGTACAATAAATTGAATAGAT [XGTACX_site3306]	7.34
CTACTTAATATTTGTACACACATATTTAACCTACTA [CACACA_site5725]	7.32
ATGTTATAATTTAGTGTGCACATATTAAGAGGAACA	10.1
ATATATATTTATATATGTACATATTTTTGTGTATTT [XGTACX_site1183]	7.21
ATATATATATATATATGTACATAATAATTTTATAAA [XGTACX_site5105]	8.85
AATAATAATAGAAACACACACACATTTTTAATAATA [CACACA_site1217]	6.84
ATATATTTTATACATACACACATATATATATTTTTT [CACACA_site3940]	7.23
TGATTAAATCAAGAAAGTACAAAATGAAATATATAA [XGTACX_site4319]	7.03
AAAATAATTTTATAGTTGCACTATATCGTATACAAT	8.54
TAAAGTGTAAAATTCACACACATATAAATAAATATA [CACACA_site6765]	6.82
TTTAAAAAAAAAAATACACACATAAAAGTTTTCAAA [CACACA_site6471]	6.74
TACAAAAGCTATAACATTCACCACATTATAAAAATA [CACACA_negctrl_site1112]	6.95

Sequence	gcPBM binding intensity (ln)
TTTTCATTAAGATACTTATAATAGTTTATTAGTAAA [CACACA_negctrl_site586]	6.67
TTACAAATATTATAATGTACCCATTTTTTTTGCCTT [XGTACX_site6612]	6.91
AATTCAAAGAAAAACTGTACGTGTAGCAAACATCCT [XGTACX_site599]	7.07
TAATATGAAGATGGCAGTACTCTAGTCAATTTTTAC [XGTACX_site5375]	6.79
AAAATATATAAATATACATGCATAATTAATAGTATA [TGCATGCA_site804]	6.92
TATTATATATATAGGTGTACGCATTTGTCCTTTATA [XGTACX_site1385]	7.19
AAACTTATGTTTACATGTACAGAACTTTATATTATG [XGTACX_site4843]	6.95
TCGAACATTAACATAACACACATATAGATTTATATA [CACACA_site7380]	6.96
TTATTCTTTAACTAAAATTATATATATATATTATAC [CACACA_negctrl_site1597]	7.03
TTGTATGCTTCCCGACTACATTATGCCATAAATGTA [TGCATGCA_negctrl_site136]	6.97
ATAACTTATTTTTAAAGTACATTATTATATATATAT [XGTACX_site1620]	8.61
ATTGTAATAAATTGTAGTACATGTAAGGTTTTATTT [XGTACX_site1005]	7.04
AATAAAAATATATCCACACACATATATAAATATGTA [CACACA_site6415]	6.78
TTAAGAATATTTTCATGTACTCATTTTTTTTGTTAT [XGTACX_site1814]	7
ATTACATATGTGAGTTGTACTATAAATATATAATAT [XGTACX_site3718]	7.09
AAAACAAACATTACACGTACAAAACAAGTTATAGAC [XGTACX_site6320]	7.22
TTTTTGATATTAAAGGGTACATTATTTACAAAAAAA [XGTACX_site5284]	6.93
ATGCTTTTTTATAAAAGTACATAAAGTTTTTACACT [XGTACX_site7307]	6.95
CTGCCTTCCATACCCACACACTTCCCATATATTTTA [CACACA_site5491]	7.57
GATCCTGGTTCTTGTGGTACTTGTTCATTTGTTATA [XGTACX_site7164]	7.07
ATTCTTTTATTTAGTAGTACATTTGTATTTTATTCA [XGTACX_site5790]	7.39
TAAACATTTTTAATTTTGTAAAATTTTAAATAAAAA [XGTACX_negctrl_site612]	6.75

Sequence	gcPBM binding intensity (ln)
ACAAACAAAGAAAGAACACACATACACAAGATACCT [CACACA_site7353]	6.81
TGAATATTTTATGATTGTACATATTATAATAAACAT [XGTACX_site6113]	7.05
AATATTTTAATGCACACACACAAAAAAAAAAAAAAA [CACACA_site7374]	7.35
AATCCTTTACGACACACACACAAAAAAAAAAAAAAA [CACACA_site6449]	7.22
TTTTTCTTTCTTTCTTTTTTAATATTACAAATGTAT [XGTACX_negctrl_site267]	7.08
TTATTAAAACAAAATGTACACACATATAATTTAATG [CACACA_site8193]	7
TTCAATGCATGTCCATGTACATATAAAAAAAAATAC [XGTACX_site1597]	7.45
TGTTGGCAGGTGAATGCATGCATATAAGTCTATCTG [TGCATGCA_site781]	6.82
CACCCTTTACACAAGGTGCATACTTTATTATATTTT [GTGCAC_site9778]	10.6
AAAGTAGAATATCCCCTACACACCCAAATAATTTAC [CACACA_site1255]	7.28
AACCACATACCTATAACACACATATACAATATAGAT [CACACA_site7023]	7.22
TCCACAAAGCATGTAACACACAACATATAAGACATA [CACACA_site972]	6.99
ACATCATAGAAAAATTGATATATATATATATATATA [CACACA_negctrl_site130]	9.65
TATATATTTTATTTATGTACGAAAATAAATTAAATT [XGTACX_site3628]	6.94
TTAAAAAAATTAATATGTACATATATTTATATATAT [XGTACX_site5317]	7.34
TATTAAAAAGAGGTGACACACACATATAAATCTAAA [CACACA_site9243]	6.79
AAATATATATAAATGAGTACTTATGGTAACATATAT [XGTACX_site6362]	7.43
AGAGCATAATAAAACACACACATACATACCTATATA [CACACA_site6566]	6.96
AAAAAATATTGAAGTACACACATTATGAACTTTTTT [CACACA_site1733]	6.98
ATAAATAATTATAATTGTACACATATATATATATAC [XGTACX_site3998]	7.27
TTCCACATTTTACAGACACACACAATTTATATTACG [CACACA_site8572]	7.31
TGTTTTTATAATATTAGTACATAATATACATAATTC [XGTACX_site2787]	7.11

Sequence	gcPBM binding intensity (ln)
AATAAATTAATTTTGGGTACATATATATATATATAT [XGTACX_site3807]	9.31
GTAAGTTGTGCATTCACACACATATATATATATATA [CACACA_site3303]	9.85
TTTTGTTTCTATATAAGATGGAAATATAAACTTGTA [CACACA_negctrl_site82]	6.99
TTAAGATCCTAAAAAACACACAATTGTGAATAATAA [CACACA_site3872]	6.75
TATATATATATATATACATGCATATATATAATATAT [TGCATGCA_site763]	9.31
TAAAAAAATTTAACATGTACAAATATTGAAAAGGAC [XGTACX_site7608]	7.75
ATTAAAAAAGAATATACACACCAAAACTGTTTGTTA [CACACA_site4687]	6.67
GAAGAATAAATATGCACACATGCATATATTTTTACA [CACACA_site3459]	9.35
ATATATTTTTACCATACACACATATAACAAATATAT [CACACA_site7706]	7.41
TTTATTATCTTATTCACACACATATATATATATATA [CACACA_site2869]	9.64
AGAAAAAAAAAAAAAAAAAAAAAATTGAATATATAT [TGCATGCA_negctrl_site55]	6.71
TACAATTCGTAATACACACACATATATATATATATT [CACACA_site3751]	7.19
ATATTCCTACATACAACACACGACGTTCTCATAAGA [CACACA_site231]	7.3
GGAAAATGAAAAACAAAAAAAAAAAAAAAAAAATGA [TGCATGCA_negctrl_site432]	6.65
AAAAATAGACAAAAGAGTACAAGAAAAAAAGGGTTC [XGTACX_site7843]	6.8
ACATCTGTTATTTGTGGTACTAAAAAAATATATAGT [XGTACX_site8322]	7.08
TCTTTTTAGATATATACACACCGTGTCTACCTATAC [CACACA_site7551]	6.86
TTTTAAAGTTGTGAGCTTCATTTTTATTTATATGTA [CACACA_negctrl_site1505]	6.76
TTACAATTAATAAAGTGTACTTAACTATTATATATA [XGTACX_site481]	7
TTGATCTATAATAATACACACTTACATAATTAATTA [CACACA_site6273]	6.98
ATATATATATATGTCTGTACATAAAAAATAATAAAT [XGTACX_site3122]	9.01
ATCATATTTATGTTGGTGCATTATGCATGGATTTTA [GTGCAC_site9795]	9.92
